# Assay results from PubChem BioAssay AID1347417 (National Center for Advancing Translational Sciences (NCATS), 2020).
# The whole screen tested about 120,000 compounds, of which about 5,300 (4.4%) were called active. This list was built around the results that the source calls inconclusive (neither active nor inactive); the mix of calls is not that of the screen. Calls follow the shape of the dose curve; as a rule, active = well fitted inhibition curve with a large enough effect; inconclusive = small, poorly fitted or top-dose-only effect; inactive = no such curve, though single readings can be large or run the other way. Where the call is inconclusive, the potency comes from a doubtful curve fit.
# Assay: qHTS Primary assay for Inhibitors of Plasmodium falciparum Dd2 growth in vitro; also: nearly all actives have a fitted effect of over 65% in size;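 as to activity, negative = inhibition: plate controls were DMSO vehicle for no effect and reference drug for full effect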
# Conditions: P. falciparum Dd2 growth, SYBR Green, 72 h; activity, negative = inhibition: at 28.9 µM (top of the series) unless noted; series mostly up to 28.9 µM
# Method in brief: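 Readout: SYBR Green fluorescence, 485 nm excitation, 535 nm emission, after ~16 h lysis at 37C. Before that, Dd2-infected red cells (2.5% hematocrit) grew 72 h with compound, 29 uM top final concentration.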
# Potency is read from the fitted curve at half-maximal effect; tags tell the direction and shape of the fitted curve.
SMILES,Potency,"activity, negative = inhibition",outcome
O=C(CCCc1ccccc1)N1CCC(Cc2nc(-c3ccncc3)n[nH]2)CC1,"inconclusive: 0.891 µM [inhibitor, partial curve, poor fit]",,
CCOc1ccc(C(=O)N2CCCN(S(C)(=O)=O)c3ccccc32)cc1OCC,"inconclusive: 17.8 µM [inhibitor, single point]",,
COc1ccc(NC(=O)Cn2c(N3CCCCC3)nc(C)c(C)c2=O)cc1Cl,"inconclusive: 2.82 µM [inhibitor, single point]",,
O=C(Cc1cccs1)N1CCCC(CN2CCOCC2)CC1 (configuration not stated),"inconclusive: 17.8 µM [inhibitor, single point]",,
COc1ccc(C(=O)N[C@@H]2CN(c3ncccn3)C[C@H]2CN(C)C)cc1F,,inactive: 6.34%,
Cc1cccc(N2CCN(C(=O)c3ccc4c(c3)N(Cc3ccccc3)C(=O)c3ccccc3S4(=O)=O)CC2C)c1 (configuration not stated),"inconclusive: 7.94 µM [inhibitor, partial curve]",,
CC(C(N)=O)N1CCC(n2nccc2NC(=O)c2ccc3c(c2)OCO3)CC1 (configuration not stated),,inactive: 4.05%,
Cc1c2cnn(-c3ccccc3)c(=O)c2c(C)n1C(C)C(=O)Nc1ccccc1C(F)(F)F (configuration not stated),"inconclusive: 5.62 µM [inhibitor, partial curve, poor fit]",,
CN(C)C[C@@H]1CN(c2ccncn2)C[C@H]1NC(=O)COc1ccc(Cl)cc1,active: 7.94 µM,,
COc1cccc(-c2cc(C(=O)NCC34CCC=C3N(C)C(=O)CC4)[nH]n2)c1 (configuration not stated),"inconclusive: 0.631 µM [inhibitor, full curve, poor fit]",,
CCc1ccccc1NC(=O)c1cn(C)c(=O)c2ccccc12,"inconclusive: 0.355 µM [inhibitor, full curve, poor fit]",,
COCCCNC(=O)C1CCN(Cc2cc3ccccc3n2Cc2cccc(C)c2)CC1,"inconclusive: 10 µM [inhibitor, single point]",,
COc1ccc(OC)c(S(=O)(=O)N2CCC(OC3CCN(C)CC3)CC2)c1,,,inactive
O=C(c1ccc2c(c1)OCO2)N1CCC2(CC1)N(c1ccccc1)C(=O)CS2(=O)=O,"inconclusive: 3.55 µM [inhibitor, partial curve]",,
CC(=O)Nc1ccc(CN2CCOC[C@H]2c2ncc(-c3cccc(Cl)c3)[nH]2)cc1,,inactive: -6.57% [at 44.1 µM],
CC1=NS(=O)(=O)N(C)C=C1C(=O)OCc1nc(Cc2ccccc2C)no1,,inactive: 2.45%,
COc1cc(-c2nc(SCC(=O)Nc3ccc4c(c3)OCO4)c(-c3ccccc3)[nH]2)cc(OC)c1OC,"inconclusive: 6.31 µM [inhibitor, partial curve, poor fit]",,
CCc1ccccc1NC(=O)CN1C(=O)C(c2ccccc2)=NC12CCCC2,"inconclusive: 3.98 µM [inhibitor, single point]",,
COc1ccc(-c2nnc(C3CCN(S(=O)(=O)c4cccc(Cl)c4)CC3)o2)cc1,"inconclusive: 6.31 µM [inhibitor, partial curve]",,
CCn1ccc(C(=O)NCC(=O)N2CCCCCCNC(=O)CC2c2ccccc2)n1 (configuration not stated),"inconclusive: 7.08 µM [inhibitor, partial curve, poor fit]",,
COc1ccccc1C(=O)Nc1ccc2nc(SCC(=O)N3CCCc4ccccc43)sc2c1,"inconclusive: 10 µM [inhibitor, single point]",,

SMILES,Potency,"activity, negative = inhibition",outcome
COc1cccc(CN2CCC3(Cc4ccccc4CNC3=O)C2)c1 (configuration not stated),"inconclusive: 4.47 µM [inhibitor, partial curve]",,
COc1ccc(OC)c(NC(=O)C2CCCN(S(=O)(=O)c3ccc4c(c3)CCCC(=O)N4)C2)c1 (configuration not stated),"inconclusive: 8.91 µM [inhibitor, partial curve, poor fit]",,
COCCc1nncn1C1CCN(C(=O)c2cc(F)cc(F)c2)CC1,,inactive: 3.37%,
COc1ccccc1NC(=O)C1=C(C)Nc2nc(SC)nn2C1c1ccccc1Cl (configuration not stated),"inconclusive: 11.2 µM [inhibitor, partial curve]",,
O=C(c1ccc(Cl)s1)N1CCC2(CC1)CN(c1ccncn1)CC2CO (configuration not stated),"inconclusive: 10 µM [inhibitor, single point]",,
O=C(NC1C=CS(=O)(=O)C1)c1ccc2nc(-c3ccc(F)cc3)cn2c1 (configuration not stated),,inactive: -12.3%,
COc1ccccc1C(=O)Nc1nc2n(n1)C(c1ccc(F)cc1)C=C(c1ccc(Cl)cc1)N2 (configuration not stated),active: 4.47 µM,,
CCOC(=O)c1cc(S(=O)(=O)NCc2ccc(Cl)cc2)[nH]n1,"inconclusive: 5.01 µM [inhibitor, partial curve, poor fit]",,
CC(=O)N1CC2(Cc3ccccc31)CN(C(=O)c1ccc(F)cc1)C2,,inactive: -20.9% [at 44.1 µM],
CCNc1ncnc2sc3c(c12)CCN(C(=O)COC)C3,,inactive: -9.25%,
CCC1Oc2ccc(NS(=O)(=O)c3ccc(Cl)cc3)cc2CN(Cc2ccc(F)cc2)C1=O (configuration not stated),"inconclusive: 8.91 µM [inhibitor, partial curve, poor fit]",,
COc1ccccc1C(=O)N/C(=C\c1cn(S(=O)(=O)N(C)C)c2ccccc12)C(=O)NCCCn1ccnc1,"inconclusive: 17.8 µM [inhibitor, single point]",,
CCc1ccc(CNC(=O)C2CCCN(c3nnc(C)c4c(C)n(-c5ccccc5)nc34)C2)cc1 (configuration not stated),,inactive: -29%,
CNC(C)c1ccccc1Cl (configuration not stated),,inconclusive: -176% [inhibitor] [at 44.1 µM],
c1ccc(-c2noc(-c3ccc(OC4CNC4)cc3)n2)cc1,,inactive: 2.23% [at 5.79 µM],
COc1cccc(C(=O)N2CCn3c(nn(-c4ccncc4)c3=O)C2)c1,,inactive: -16.4%,
Cc1nn2c(c1-c1ccccc1C(C)C)N(C(=O)C1CCOCC1)CCC2,,,inactive [at 44.1 µM]
Cc1ccc(C)c(S(=O)(=O)c2nnn3c2nc(N2CCN(C)CC2)c2sccc23)c1,active: 8.91 µM,,
CCCCN(C(=O)C1CCC(CNS(=O)(=O)c2cccc3nsnc23)CC1)c1ccccc1 (configuration not stated),active: 2.24 µM,,
COc1ccccc1CN1CCC(CNC(=O)c2cnn(-c3ccccc3Cl)c2C2CCN(C(=O)OC(C)(C)C)CC2)CC1,active: 2.51 µM,,
Cc1cccc(NC(=O)c2ccc(-n3c(C)nnc3C)cc2)c1,"inconclusive: 12.6 µM [inhibitor, single point]",,
